# About 64,000 (15%) of roughly 420,000 compounds were called active. The shares of active, inactive and inconclusive entries below differ from those in the screen. Calls follow the shape of the dose curve; as a rule, active = well fitted inhibition curve with a large enough effect; inconclusive = small, poorly fitted or top-dose-only effect; inactive = flat fitted curve, though single readings scatter. Potencies of inconclusive entries are left out as doubtful fits.
# Assay: qHTS for Inhibitors of human tyrosyl-DNA phosphodiesterase 1 (TDP1): qHTS in cells in absence of CPT; also: nearly all actives have a fitted effect of over 55% in size
# Details: DT40 Tdp1-/- hTDP1 cells, no CPT, ATP luminescence, 48 h; activity change, negative = growth inhibition: at 46.2 µM (top of the series)
# In short: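 Growth kinetics read by CellTiter-Glo luminescence after ≥48 hr at 37 °C. Cells: DT40 Tdp1-/- stably carrying human TDP1, 400 per well, compound exposure in the absence of CPT (DMSO vehicle).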
# % is scaled to controls: 0 for no effect and ±100 for the full control effect; potency is read from the fitted curve at half-maximal effect; tags tell the direction and shape of the fitted curve.
SMILES,Potency,"activity change, negative = growth inhibition"
COCCOC(=O)C1=C(C)OC(N)=C(C#N)C1c1cc2cccc(C)c2nc1Cl (stereo unspecified),"inconclusive [inhibitor, single point]",
COc1cccc(/C=N/NC(=O)Cn2cnc3c2c(=O)n(C)c(=O)n3C)c1,,inconclusive: -36.8% [inhibitor]
CCOc1ccccc1NC(=O)c1ccc(C(=O)Nc2ccccc2OCC)nc1,,inactive: -9.65%
COc1cc(NC(=O)C2CC(=O)N(CCc3ccccc3)C2)cc(OC)c1 (stereo unspecified),"inconclusive [inhibitor, single point]",
O/N=C/c1cn(-c2ccccc2)nc1-c1ccccc1,"inconclusive [inhibitor, single point]",
COc1ccc(C2=NN(S(=O)(=O)c3ccccc3)C(c3ccccc3)C2)cc1 (stereo unspecified),"inconclusive [inhibitor, single point]",
COc1ccc(NC(=O)CCSc2ccc(C)cc2)cc1S(=O)(=O)Nc1ccccc1Cl,active: 13 µM,
COc1ccc(-c2cc3c(=O)n(CC(=O)NCc4cccnc4)nc(C)n3n2)cc1,"inconclusive [inhibitor, single point]",
O=C(CCCSCCCC(=O)NN=Cc1ccccc1)NN=Cc1ccccc1,active: 23.1 µM,
OC[C@@H]1CN(Cc2ccc(-c3ccccc3)cc2)C[C@H](n2cnc3c(N4CCOCC4)ncnc32)O1,"inconclusive [inhibitor, single point]",
Cc1cc2nn(-c3ccccc3)nc2cc1NC(=O)c1cccs1,"inconclusive [inhibitor, single point]",
Cc1cc(N/C=C\C(=O)c2ccc(Cl)c(Cl)c2)no1,,inactive: -14.7%
CCOc1ccccc1-c1noc(CCCC(=O)Nc2cccc(C(F)(F)F)c2)n1,active: 18.4 µM,
Nc1nc(N)c2cc([N+](=O)[O-])ccc2n1,"inconclusive [inhibitor, single point]",
CC1(C(=O)N/N=C/c2c(F)c(F)c(F)c(F)c2F)CC1(Cl)Cl (stereo unspecified),"inconclusive [inhibitor, partial curve]",
Cc1ccc(OCCNC(=O)Cc2ccc(F)cc2)cc1,,inactive: -26.5%
COc1ccccc1NC(=O)N(C)C[C@@H]1Oc2ncc(Br)cc2C(=O)N([C@H](C)CO)C[C@@H]1C,"inconclusive [inhibitor, partial curve, poor fit]",
CCOC(=O)CCN(c1ccccc1)S(=O)(=O)c1cc(-c2cc(C)no2)ccc1C,"inconclusive [inhibitor, single point]",
Cc1cn(C)c(CC(=O)N2CCN(c3cccc(C(F)(F)F)c3)CC2)c1C(=O)O,"inconclusive [inhibitor, single point]",
CCOC(=O)N1CCN(Cc2nc3c(c(=O)n(C)c(=O)n3C)n2Cc2cccc(C)c2)CC1,"inconclusive [inhibitor, single point]",
Cc1cc(C)c2cc(C#N)c(NCCCN)nc2c1,active: 20.6 µM,
O=C1CCCC(=NNC(=O)c2cc3ccccc3cc2O)C1,,inactive: -21.6%
CC(CC(=O)Nc1ccc2c(c1)c(=O)n(C)n2Cc1ccc(F)cc1)C(F)(F)F (stereo unspecified),"inconclusive [inhibitor, single point]",
O=C(NCCc1ccccc1)c1cccc(S(=O)(=O)N2CCCCC2)c1,"inconclusive [inhibitor, single point]",

SMILES,Potency,"activity change, negative = growth inhibition"
CC1(C(=O)Nc2ccccc2)Cc2c(-c3ccc4c(c3)OCO4)ccnc2O1 (stereo unspecified),,inactive: -13.4%
Brc1ccc(OCc2nnnn2-c2ccccc2)cc1,"inconclusive [inhibitor, partial curve]",
Cc1sc2nc(CN(C(=O)NC3CCCCC3)C3CCCC3)[nH]c(=O)c2c1C,active: 16.4 µM,
Cc1cc(C)n(CC(C)NCc2cn[nH]c2-c2cccc3ccccc23)n1 (stereo unspecified),active: 18.4 µM,
O=C(COC(=O)c1ccccc1O)NCCCc1ccccc1,,inactive: -22.1%
CCCC(=O)C1=C(N2CCCC2)CC(C)(C)C(C(=O)OC)C1=O (stereo unspecified),,inactive: 16.3%
O=C(NCCOc1ccccc1Cl)C(=O)NCCOc1ccccc1Cl,,inactive: -24.4%
Cn1c2ccccc2c2c(=O)oc3ccccc3c21,"inconclusive [inhibitor, partial curve]",
CCCC(=O)Nc1ccc(C(=O)N/N=C/c2cccnc2)cc1,,inactive: 9.79%
CCOc1ccc(C2CC(=O)NC2=O)cc1 (stereo unspecified),,inactive: -8.41%
O=C1NC(=Nc2ccccc2)SC1Cc1ccccc1 (stereo unspecified),,inactive: -26.9%
CC(=O)Nc1ccc(N/C(N)=N/c2nc(C)cc(C)n2)cc1,"inconclusive [inhibitor, partial curve]",
Cc1cnn(-c2nc(-c3cccs3)cc(C(F)(F)F)n2)c1,"inconclusive [inhibitor, single point]",
NC1=NC2(CCCCC2)N=C(Nc2ccc(F)cc2F)N1,,inactive: -0.117%
Cc1cccc(C(=O)Nc2cccc(OCc3cc(=O)n4cc(C)sc4n3)c2)c1,"inconclusive [inhibitor, partial curve]",
COc1ccc(C(=O)N2CCCCC2c2cc(C(=O)Nc3ccc(OC)cc3C)no2)cc1 (stereo unspecified),"inconclusive [inhibitor, single point]",
COc1ccc(SCC(=O)c2cc(C)c(OC(=S)N(C)C)c(C)c2)cc1,"inconclusive [inhibitor, single point]",
O=C(NCCO)c1cccc(-c2cnc3cccnn23)c1,"inconclusive [inhibitor, partial curve, poor fit]",
Cc1ccc(C)c(NC(=O)CSc2ccc(-c3cccs3)nn2)c1,,inconclusive: -34% [inhibitor]
COc1ccc(Nc2nc(-c3ccncc3)nc3ccccc23)cc1,active: 10.3 µM,
CCCn1c(=O)c2ccccc2n2c(SCC(=O)c3ccccc3)nnc12,"inconclusive [inhibitor, single point]",
Cc1cc(C)c(S(=O)(=O)N2CCN(C(=O)c3cc(=O)[nH]c4ccccc34)CC2)c(C)c1,active: 16.4 µM,
Clc1ccc(-c2nc(NCCN3CCOCC3)c3ccccc3n2)cc1,"inconclusive [inhibitor, single point]",
O=C(CCNS(=O)(=O)c1ccc(OC(F)(F)F)cc1)N1CCN(C/C=C/c2ccccc2)CC1,"inconclusive [inhibitor, single point]",

SMILES,Potency,"activity change, negative = growth inhibition"
O=C1c2c(Br)c(Br)c(Br)c(Br)c2C(=O)N1c1ccccn1,"inconclusive [inhibitor, single point]",
Cc1ccc(-n2cc3c(c2-c2ccccc2Br)c(=O)n(C)c(=O)n3C)cc1N,"inconclusive [inhibitor, single point]",
CCCn1c(SCC(=O)NC(C)C)nc2sc3c(c2c1=O)CCC3,"inconclusive [inhibitor, partial curve]",
Cc1cc(NS(=O)(=O)c2ccc(NC(=O)CCCOc3ccccc3C)cc2)no1,,inactive: 2.94%
O=C(CCCCn1c(=O)c2ccccc2n(CC(=O)Nc2cccc(F)c2)c1=O)NCc1ccco1,"inconclusive [inhibitor, single point]",
Cn1c(CN2CCOCC2)nc2cc(NC(=O)COc3ccccc3)ccc21,"inconclusive [inhibitor, single point]",
C=CCn1c(SCC(=O)N2CCOCC2)nnc1C(C)NC(=O)c1ccccc1 (stereo unspecified),,inactive: -9.43%
COc1cc(Br)cc(/C=N/N(CCO)C2=NS(=O)(=O)c3ccccc32)c1OC,"inconclusive [inhibitor, single point]",
COc1ccccc1N1CCN(CCCNC(=O)c2nnc(Cc3c(F)cccc3Cl)o2)CC1,"inconclusive [inhibitor, single point]",
O=S(=O)(NCCc1ccccc1)c1cccc(S(=O)(=O)N2CCOCC2)c1,"inconclusive [inhibitor, single point]",
COc1ccc(NS(=O)(=O)c2cccc(NC(=O)COc3ccccc3[N+](=O)[O-])c2)cc1,"inconclusive [inhibitor, single point]",
CCc1ccc(-c2cc3c(=O)n(CC(=O)NCCCN4CCC(Cc5ccccc5)CC4)nc(C)n3n2)cc1,"inconclusive [inhibitor, single point]",
Cc1ccc(C)c(S(=O)(=O)Nc2cc3c4c(c2)CCN4C(=O)CC3)c1,"inconclusive [inhibitor, single point]",
O=C(Nc1ccc(Br)cc1)N1CCc2ccccc2C1,,inactive: -10.7%
COc1ccccc1-c1nc2c(c(SCC(=O)Nc3ccccc3F)n1)Cc1c(CO)cnc(C)c1O2,"inconclusive [inhibitor, partial curve]",
COc1cccc(CN(C(=O)COc2ccccc2[N+](=O)[O-])C2CCS(=O)(=O)C2)c1 (stereo unspecified),"inconclusive [inhibitor, single point]",
CN=c1scc(C)n1/N=C/c1ccc(O)c(O)c1O,active: 18.4 µM,
O=C1OC(c2ccc(F)cc2)CC1CN1CCOCC1 (stereo unspecified),active: 10.3 µM,
CCCN1C2CCCC1CC(NC(=O)c1cccc(OC)c1)C2 (stereo unspecified),,inactive: -4.33%
Cc1ccc(NC(=O)CCn2cnc3ccccc3c2=O)cc1Cl,,inactive: -5.88%
CN(CC(=O)Nc1ccc(Cl)c(C(F)(F)F)c1)C(=O)c1cn2ccccc2n1,active: 10.3 µM,
COc1cc(/C=N/Nc2nc3ccccc3[nH]2)cc(Br)c1OCC(=O)N(C)C,active: 18.4 µM,
Cc1ccc2c(=O)cc(C(=O)N(Cc3ccccc3Cl)C3CCS(=O)(=O)C3)oc2c1 (stereo unspecified),"inconclusive [inhibitor, single point]",

# — PubChem BioAssay AID686978 (National Center for Advancing Translational Sciences (NCATS), 2013)
